# Experimental data as given in the supplement of paper PMC8728848.
# The list shows a part of the results.
# B1: rAAL-H59Q (Agrocybe aegerita), Q6WY08 (protein)
# chain: MQGVNIYNISAGTSVDLAAPVTTGDIVTFFSSALNLNAGAGNPNNTTLNLFAENGAYLLQIAFRLQENVIIFNSRQPDGPWLVEQRVSDVANQFAGIDGKAMVTVFDHGDKYQVVINEKTVIQYTKQISGLTLSLSYNATEETSIFSTVVEAVTYTGLALEHHHHHH
# What was measured:
# Test in all cases: glycan array binding signal (z-score within array); higher = stronger binding
# Details in all cases: glycan notation: IUPAC condensed, linker removed; mutation: H59Q
# [1] = molecular target: Fuc(a1-2)Gal6S(b1-3)GlcNAc
# In short: (§1)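 The binding signal is a Z-score computed within each array. Data were drawn from 3228 arrays in the Consortium for Functional Glycomics database, restricted to those with a known protein sequence. Scores were averaged over arrays of the same protein sequence at different concentrations or buffers, and over linkers, and negative values can be taken as non-binding.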
# [2] = molecular target: Fuc(a1-2)Gal6S(b1-3)GlcNAc6S
# In short: as §1
# [3] = molecular target: Fuc(a1-2)Gal6S(b1-4)Glc
# In short: as §1
# [4] = molecular target: Fuc(a1-2)Gal6S(b1-4)Glc6S
# In short: as §1
# [5] = molecular target: Fuc(a1-2)[Gal(a1-3)]Gal
# In short: as §1
# [6] = molecular target: Fuc(a1-2)[Gal(a1-3)]Gal(b1-3)GalNAc
# In short: as §1
# [7] = molecular target: Fuc(a1-2)[Gal(a1-3)]Gal(b1-3)GalNAc(b1-3)Gal(a1-4)Gal(b1-4)Glc
# In short: as §1
# [8] = molecular target: Fuc(a1-2)[Gal(a1-3)]Gal(b1-3)GlcNAc
# In short: as §1
# [9] = molecular target: Fuc(a1-2)[Gal(a1-3)]Gal(b1-3)GlcNAc(b1-2)Man(a1-3)[Fuc(a1-2)[Gal(a1-3)]Gal(b1-3)GlcNAc(b1-2)Man(a1-6)]Man(b1-4)GlcNAc(b1-4)GlcNAc
# In short: as §1
# [10] = molecular target: Fuc(a1-2)[Gal(a1-3)]Gal(b1-3)GlcNAc(b1-2)Man(a1-3)[Fuc(a1-2)[Gal(a1-3)]Gal(b1-3)GlcNAc(b1-2)Man(a1-6)]Man(b1-4)GlcNAc(b1-4)[Fuc(a1-6)]GlcNAc
# In short: as §1
# [11] = molecular target: Fuc(a1-2)[Gal(a1-3)]Gal(b1-3)GlcNAc(b1-3)GalNAc
# In short: as §1
# [12] = molecular target: Fuc(a1-2)[Gal(a1-3)]Gal(b1-3)GlcNAc(b1-6)GalNAc
# In short: as §1
# [13] = molecular target: Fuc(a1-2)[Gal(a1-3)]Gal(b1-4)Glc
# In short: as §1
# [14] = molecular target: Fuc(a1-2)[Gal(a1-3)]Gal(b1-4)GlcNAc
# In short: as §1
# [15] = molecular target: Fuc(a1-2)[Gal(a1-3)]Gal(b1-4)GlcNAc(b1-2)Man
# In short: as §1
# [16] = molecular target: Fuc(a1-2)[Gal(a1-3)]Gal(b1-4)GlcNAc(b1-2)Man(a1-3)[Fuc(a1-2)[Gal(a1-3)]Gal(b1-4)GlcNAc(b1-2)Man(a1-6)]Man(b1-4)GlcNAc(b1-4)GlcNAc
# In short: as §1
# [17] = molecular target: Fuc(a1-2)[Gal(a1-3)]Gal(b1-4)GlcNAc(b1-2)Man(a1-3)[Fuc(a1-2)[Gal(a1-3)]Gal(b1-4)GlcNAc(b1-2)Man(a1-6)]Man(b1-4)GlcNAc(b1-4)[Fuc(a1-6)]GlcNAc
# In short: as §1
# [18] = molecular target: Fuc(a1-2)[Gal(a1-3)]Gal(b1-4)GlcNAc(b1-3)GalNAc
# In short: as §1
# [19] = molecular target: Fuc(a1-2)[Gal(a1-3)]Gal(b1-4)GlcNAc(b1-3)[Fuc(a1-2)[Gal(a1-3)]Gal(b1-4)GlcNAc(b1-6)]GalNAc
# In short: as §1
# [20] = molecular target: Fuc(a1-2)[Gal(a1-3)]Gal(b1-4)GlcNAc(b1-6)GalNAc
# In short: as §1
# [21] = molecular target: Fuc(a1-2)[Gal(a1-3)]Gal(b1-4)[Fuc(a1-3)]Glc
# In short: as §1
# [22] = molecular target: Fuc(a1-2)[Gal(a1-3)]Gal(b1-4)[Fuc(a1-3)]GlcNAc
# In short: as §1
# [23] = molecular target: Fuc(a1-2)[Gal(a1-3)]Gal(b1-4)[Fuc(a1-3)]GlcNAc(b1-3)GalNAc
# In short: as §1
# [24] = molecular target: Fuc(a1-2)[Gal(a1-4)]Gal(b1-4)GlcNAc
# In short: as §1
# [25] = molecular target: Fuc(a1-2)[GalNAc(a1-3)]Gal
# In short: as §1
# [26] = molecular target: Fuc(a1-2)[GalNAc(a1-3)]Gal(b1-3)GalNAc(a1-3)[Fuc(a1-2)]Gal(b1-4)GlcNAc
# In short: as §1
# [27] = molecular target: Fuc(a1-2)[GalNAc(a1-3)]Gal(b1-3)GalNAc(b1-3)Gal(a1-4)Gal(b1-4)Glc
# In short: as §1
# [28] = molecular target: Fuc(a1-2)[GalNAc(a1-3)]Gal(b1-3)GlcNAc
# In short: as §1
# [29] = molecular target: Fuc(a1-2)[GalNAc(a1-3)]Gal(b1-3)GlcNAc(b1-2)Man(a1-3)[Fuc(a1-2)[GalNAc(a1-3)]Gal(b1-3)GlcNAc(b1-2)Man(a1-6)]Man(b1-4)GlcNAc(b1-4)GlcNAc
# In short: as §1
# [30] = molecular target: Fuc(a1-2)[GalNAc(a1-3)]Gal(b1-3)GlcNAc(b1-2)Man(a1-3)[Fuc(a1-2)[GalNAc(a1-3)]Gal(b1-3)GlcNAc(b1-2)Man(a1-6)]Man(b1-4)GlcNAc(b1-4)[Fuc(a1-6)]GlcNAc
# In short: as §1
# [31] = molecular target: Fuc(a1-2)[GalNAc(a1-3)]Gal(b1-3)GlcNAc(b1-3)GalNAc
# In short: as §1
# [32] = molecular target: Fuc(a1-2)[GalNAc(a1-3)]Gal(b1-3)GlcNAc(b1-6)GalNAc
# In short: as §1
# [33] = molecular target: Fuc(a1-2)[GalNAc(a1-3)]Gal(b1-4)Glc
# In short: as §1
# [34] = molecular target: Fuc(a1-2)[GalNAc(a1-3)]Gal(b1-4)GlcNAc
# In short: as §1
# [35] = molecular target: Fuc(a1-2)[GalNAc(a1-3)]Gal(b1-4)GlcNAc(b1-2)Man
# In short: as §1
# [36] = molecular target: Fuc(a1-2)[GalNAc(a1-3)]Gal(b1-4)GlcNAc(b1-2)Man(a1-3)[Fuc(a1-2)[GalNAc(a1-3)]Gal(b1-4)GlcNAc(b1-2)Man(a1-6)]Man(b1-4)GlcNAc(b1-4)GlcNAc
# In short: as §1
# [37] = molecular target: Fuc(a1-2)[GalNAc(a1-3)]Gal(b1-4)GlcNAc(b1-2)Man(a1-3)[Fuc(a1-2)[GalNAc(a1-3)]Gal(b1-4)GlcNAc(b1-2)Man(a1-6)]Man(b1-4)GlcNAc(b1-4)[Fuc(a1-6)]GlcNAc
# In short: as §1
# [38] = molecular target: Fuc(a1-2)[GalNAc(a1-3)]Gal(b1-4)GlcNAc(b1-3)Gal(b1-4)GlcNAc
# In short: as §1
# [39] = molecular target: Fuc(a1-2)[GalNAc(a1-3)]Gal(b1-4)GlcNAc(b1-3)Gal(b1-4)GlcNAc(b1-3)Gal(b1-4)GlcNAc
# In short: as §1
# [40] = molecular target: Fuc(a1-2)[GalNAc(a1-3)]Gal(b1-4)GlcNAc(b1-3)GalNAc
# In short: as §1
# [41] = molecular target: Fuc(a1-2)[GalNAc(a1-3)]Gal(b1-4)GlcNAc(b1-3)[Fuc(a1-2)[GalNAc(a1-3)]Gal(b1-4)GlcNAc(b1-6)]GalNAc
# In short: as §1
# [42] = molecular target: Fuc(a1-2)[GalNAc(a1-3)]Gal(b1-4)GlcNAc(b1-6)GalNAc
# In short: as §1
# [43] = molecular target: Fuc(a1-2)[GalNAc(a1-3)]Gal(b1-4)[Fuc(a1-3)]GlcNAc
# In short: as §1
# [44] = molecular target: Fuc(a1-2)[GalNAc(a1-3)]Gal(b1-4)[Fuc(a1-3)]GlcNAc(b1-3)GalNAc
# In short: as §1
# [45] = molecular target: Fuc(a1-2)[GalNAc(a1-4)]Gal(b1-4)GlcNAc
# In short: as §1
binder,measurement,setting,value
B1,glycan array binding signal (z-score),[1],-0.097
same,glycan array binding signal (z-score),[2],-0.013
same,glycan array binding signal (z-score),[3],-0.152
same,glycan array binding signal (z-score),[4],-0.148
same,glycan array binding signal (z-score),[5],-0.072
same,glycan array binding signal (z-score),[6],-0.077
same,glycan array binding signal (z-score),[7],-0.053
same,glycan array binding signal (z-score),[8],-0.115
same,glycan array binding signal (z-score),[9],-0.124
same,glycan array binding signal (z-score),[10],-0.071
same,glycan array binding signal (z-score),[11],-0.106
same,glycan array binding signal (z-score),[12],-0.1
same,glycan array binding signal (z-score),[13],-0.071
same,glycan array binding signal (z-score),[14],-0.026
same,glycan array binding signal (z-score),[15],-0.082
same,glycan array binding signal (z-score),[16],-0.078
same,glycan array binding signal (z-score),[17],-0.055
same,glycan array binding signal (z-score),[18],-0.147
same,glycan array binding signal (z-score),[19],-0.041
same,glycan array binding signal (z-score),[20],-0.106
same,glycan array binding signal (z-score),[21],-0.097
same,glycan array binding signal (z-score),[22],-0.06
same,glycan array binding signal (z-score),[23],-0.061
same,glycan array binding signal (z-score),[24],-0.044
same,glycan array binding signal (z-score),[25],-0.123
same,glycan array binding signal (z-score),[26],-0.015
same,glycan array binding signal (z-score),[27],-0.088
same,glycan array binding signal (z-score),[28],-0.017
same,glycan array binding signal (z-score),[29],-0.063
same,glycan array binding signal (z-score),[30],-0.106
same,glycan array binding signal (z-score),[31],-0.035
same,glycan array binding signal (z-score),[32],-0.176
same,glycan array binding signal (z-score),[33],-0.116
same,glycan array binding signal (z-score),[34],-0.081
same,glycan array binding signal (z-score),[35],-0.136
same,glycan array binding signal (z-score),[36],-0.084
same,glycan array binding signal (z-score),[37],-0.055
same,glycan array binding signal (z-score),[38],-0.098
same,glycan array binding signal (z-score),[39],-0.053
same,glycan array binding signal (z-score),[40],-0.084
same,glycan array binding signal (z-score),[41],-0.096
same,glycan array binding signal (z-score),[42],-0.124
same,glycan array binding signal (z-score),[43],-0.058
same,glycan array binding signal (z-score),[44],-0.027
same,glycan array binding signal (z-score),[45],-0.064
